# Numbering of substitutions follows the chain as printed. The list shows a part of the results.
# B1: chr1:154944474:154944574:-|3pUTR|ENSG00000163346|msi1_unk|FALSE|overlapping (ssRNA)
# RNA: GGGAGUUCUACAGUCCGACGAUCUCGAGGCCCAGCACGAGGACUUACCCUGGGGUUUUGUUAGGUUUGGAAGCAGCUGUCCCUAGGGGGUGAAGUCCCCCCCCUUUUUUUUUUUACCCCUGCUUCUCCCACGGCUUCACCUCCCAACAGAGGAUUGAGCAUCA
# B2: ENSG00000087586:stop:overlap|stop_codon|ENSG00000087586|stop_codon|NA|stop_codon (ssRNA)
# RNA: GGGAGUUCUACAGUCCGACGAUCCAGCAAAUUCAUCAAAACCAUCAAAUUGCCAAAACAAAGAAUCAGCUAGCAAACAGUCUUAGGAAUCGUGCAGGGGGAGAAAUCCUUGAGCCAGGGCUGCCAUAUAACCUGACAGGAACACAACAGAGGAUUGAGCAUCA
# B3: chr4:150908776:150908877:-|CDS|ENSG00000198589|msi1|total|mutant (ssRNA)
# RNA: GGGAGUUCUACAGUCCGACGAUCGUUGAUUUGUACUCCGAUUCUCUUUGUGGCAUACUAUUUAACUGUUUUUAAUUAAUUCUCCGGGUACAUUUAAAUUCAAAGCAGAAAGCGACCUUUUCCUUGCUGAGCAUCACAAACUUUCAACAGAGGAUUGAGCAUCA
# B4: chr19:15272971:15273072:-|CDS|ENSG00000141867|msi1|FALSE|unique (ssRNA)
# RNA: GGGAGUUCUACAGUCCGACGAUCGUCUGCGGAGAGCGGCCCUGGGACGAGAUUGAGAAAUCUGCCAGUAAUGGGGGAUGGACUAGAAACUUCCCAAAUGUCUACAACACAGGCCCAGGCCCAACCCCAGCCAGCCAACGCAGCCAACAGAGGAUUGAGCAUCA
# B5: chr9:132328913:132329014:-|CDS|ENSG00000107290|msi1|FALSE|bound_elsewhere (ssRNA)
# RNA: GGGAGUUCUACAGUCCGACGAUCAGAACAAAAAUCUCAAAACAAUGUAUUGCCAAAAGAGAAACAAUUAAAGAAUGAAGAAUUAGUUAUUUUCUCUUUCCAUGAAAACAAUUGUAAAAUACAGGAAUUUCAUGUUGAUGGUAACAACAGAGGAUUGAGCAUCA
# B6: chr3:15690066:15690176:-|CDS|ENSG00000206560|unk|FALSE|bound_elsewhere (ssRNA)
# RNA: GGGAGUUCUACAGUCCGACGAUCAGUGUUGGUACAGUCUUUGUUAGAUCUUGAUGUCAGAAAUAGUAGUGGAAGAACACCCCUAGAUCUUGCAGCUUUUAAGGGCCAUGUUGAAUGUGUGGAUGUACUCAUUAAUCAGGGAGCCAACAGAGGAUUGAGCAUCA
# B7: chr1:68475836:68475940:-|3pUTR|ENSG00000024526|unk|total|mutant (ssRNA)
# RNA: GGGAGUUCUACAGUCCGACGAUCAUGCCCAGGGCCUAACUUACACUAAUUAAAUCUGAAUUUUGGGGAUGUUGUACCGGGAUCCGUAUUUUUUUUAAUCCCGGUGAUUCCAAUAUUCAGCCAACUGUGAGAAUCAAUGGCCUACAACAGAGGAUUGAGCAUCA
# B8: chr5:132696315:132696416:-|3pUTR|ENSG00000131437|msi1|total|mutant (ssRNA)
# RNA: GGGAGUUCUACAGUCCGACGAUCGUUGUACUACUACUCUUCAAUUGUACUGUGCAGGGAAGUUGGGGGAACAGUUCAUACUACCGAGAGUUACAGUUCCGAUGUAUGUGUAAAUCGAUCCGCUAUUUAUCCAACUACUGUAUACAACAGAGGAUUGAGCAUCA
# B9: chr2:108783740:108783841:+|CDS_3pUTR|ENSG00000153201|msi1_unk|total|mutant (ssRNA)
# RNA: GGGAGUUCUACAGUCCGACGAUCCAAUAAUUCUCAAUUUGUUAUAACACUGAAGAAAGCAGAACAUUUGGACUUUAAGCAUGCCGUAUUUGGGUUUGUUAAGGAUGGCAUGGAUACUGUGAAAAAGAUUGAAUCAUUUGGUUCCAACAGAGGAUUGAGCAUCA
# B10: chr10:62094764:62094865:+|3pUTR|ENSG00000150347|msi1|FALSE|unique (ssRNA)
# RNA: GGGAGUUCUACAGUCCGACGAUCGAUGAACUCCCCAACCCACUGUGCCCCUCCCGCAACACUACCAGUAGACUUUAGAACCAUAGUUAACUAAGUCUUUUACCUCUGAGAUACUUAAUUCUGGGAAAAUUGGUGACAAUUUUCCAACAGAGGAUUGAGCAUCA
# B11: chr9:128583791:128583907:+|CDS|ENSG00000197694|unk|total|mutant (ssRNA)
# RNA: GGGAGUUCUACAGUCCGACGAUCCAACCAGCAACAGCAAUUUAAUCGCAAUGUUGAGGAUAUUGAAUUGUGGCUAUAUGAAGCCGAAGGUCACUUGGCUUCGGAUGAUUACGGCAAAGAUCUUACCAAUGUGCAGAACCUCCACAACAGAGGAUUGAGCAUCA
# B12: chr20:4853394:4853498:-|3pUTR|ENSG00000089057|unk|total|mutant (ssRNA)
# RNA: GGGAGUUCUACAGUCCGACGAUCUAUGACCAUGAGCUAAGUUGUUAUUUCUUUCAUUCAUAUCCCUGCUGAAAUAUUGGUACCCGCAACUUAAAGUUGGCAAGUCUCAUCUUCAGUAAUACGGAUGCCAUGGGAGUGGCCAGGCAACAGAGGAUUGAGCAUCA
# B13: chr20:13714314:13714426:-|3pUTR|ENSG00000089048|unk|FALSE|unique (ssRNA)
# RNA: GGGAGUUCUACAGUCCGACGAUCUUUUUCUAGCCAUAAAGGAUGGAAGUCAAGAACUUUUUGUUGUUUAGUCAUGUUAAGUAUAGUUUAUGAAAUUAACUUGUAAAUAAAAGUGUAAAAUAUUUUCAUUAUUUUGUAUAGCACCAACAGAGGAUUGAGCAUCA
# B14: chr9:132328913:132329014:-|CDS|ENSG00000107290|msi1|total|mutant (ssRNA)
# RNA: B5 RNA with U83C, A84C
# B15: ENSG00000198589:be:win_7251|CDS|ENSG00000198589|bound_else_gene|NA|bound_elsewhere_windowed (ssRNA)
# RNA: GGGAGUUCUACAGUCCGACGAUCUGGCUAUAAACAGCAAGGACCAGAAGCUGUCCGAGCCCUCAAUGUGUUCUAUUACUUGACCUAUGAAGGAGCUGUCAAUCUGAAUUCAAUAACUGAUCCUGUGUUGAGAGAGGCUGUUGACAACAGAGGAUUGAGCAUCA
# B16: chr16:58551611:58551719:-|CDS|ENSG00000125107|unk|total|mutant (ssRNA)
# RNA: GGGAGUUCUACAGUCCGACGAUCCUGGCUCAGGCCCAGGCUCAGGCCCAGGUUCCAGCAAAAGCUCCUCUUGCUGGUCAAGUCCGCACUAUGGUAACCACCUCAACAACUACCACUGUUGCUAAAACGGUUACGGUCACCAGGCAACAGAGGAUUGAGCAUCA
# B17: chr20:56369402:56369507:-|3pUTR|ENSG00000087586|unk|FALSE|unique (ssRNA)
# RNA: GGGAGUUCUACAGUCCGACGAUCAGAAGAGGCCAUGUGUCUCAGAGCUGUUAAGGGCUUAUUUUUUUAAAACAUUGGAGUCAUAGCAUGUGUGUAAACUUUAAAUAUGCAAAUAAAUAAGUAUCUAUGUCUGUGUGGAGUGCUCAACAGAGGAUUGAGCAUCA
# B18: chr22:46316300:46316401:+|CDS|ENSG00000075218|unk|FALSE|unique (ssRNA)
# RNA: GGGAGUUCUACAGUCCGACGAUCGGCGGCCAGUGGCUGAACUCCAGUUGCGCUUGGUCAGAAUCUUCUCAAUUGAAUAAGACUAGAAGUAUCAGACGGCGAGAUUCCUGUCUAAAUUCCAAGACAAAGGUUAUGCCUACUCCUCAACAGAGGAUUGAGCAUCA
# B19: chrX:53645320:53645442:-|CDS|ENSG00000086758|unk|FALSE|unique (ssRNA)
# RNA: GGGAGUUCUACAGUCCGACGAUCUUAUUGGCUUCCUCUGAUAUGCAAGUGGUGCUGGCAGUCCUCAAUCUCCUAUAUGUAUUUAGCAAAAGAUCAAACUACAUCACUCGUCUGGGAUCUGACAAGAGGACCCCGCUGCUAACUCAACAGAGGAUUGAGCAUCA
# B20: chr16:1487315:1487970:-|CDS|ENSG00000251692|control|control|control (ssRNA)
# RNA: GGGAGUUCUACAGUCCGACGAUCGGGGGAGCUGGCGCAGCUCAAGGCCUGGGUGAGGAAGCUGCAGCGCCGAGGCCGGAAAGUAGACACGCGGCUGCGGGCCUUGGACCUCACCCUGGGCGAGAGGAGCCAGCAGCGGGCCCGCAACAGAGGAUUGAGCAUCA
# B21: chr9:37126384:37126485:+|CDS|ENSG00000147905|unk|total|mutant (ssRNA)
# RNA: GGGAGUUCUACAGUCCGACGAUCUAUCGAGAUGAGUCAUCCCGUGAACUGAGUGUUGACCGUGAGGUGGAAUUUCAACUCUACCGCCAAAUUCAUUAUGCCCAAGAUCUUGAUGAUGUCAUCAGGGAGGAAGAGCAUGAAGAACAACAGAGGAUUGAGCAUCA
# B22: ENSG00000198589:be:win_7501|CDS|ENSG00000198589|bound_else_gene|NA|bound_elsewhere_windowed (ssRNA)
# RNA: GGGAGUUCUACAGUCCGACGAUCCUCAAGUUUCCCUCCAACUCCCCUGUUACUCACGUGGCAGCCAACACCCAGCCUGGUUUGGCAACUCCCGCUGUGAUCACAGUCACUGCUAACAGGUUAUUUGCGGUGAACAAAUGGCACCAACAGAGGAUUGAGCAUCA
# Molecular target: MSI1 full-length (mouse, UniProt Q61474 1-362)
# Assay: nsRBNS (natural sequence RNA bind-n-seq); RBNS binding buffer (assumed for nsRBNS): 25 mM Tris pH 7.5, 150 mM KCl, 3 mM MgCl2, 0.01% Triton X-100, 500 ug/ml BSA, 20 U/ml SUPERase-In, 4 C; UNK is unkempt and MSI1 is Musashi-1; names of the RNAs are library labels; protein concentration not given here; high values mean tight binding
# UniProt Q61474, sequence (Q61474 whole entry): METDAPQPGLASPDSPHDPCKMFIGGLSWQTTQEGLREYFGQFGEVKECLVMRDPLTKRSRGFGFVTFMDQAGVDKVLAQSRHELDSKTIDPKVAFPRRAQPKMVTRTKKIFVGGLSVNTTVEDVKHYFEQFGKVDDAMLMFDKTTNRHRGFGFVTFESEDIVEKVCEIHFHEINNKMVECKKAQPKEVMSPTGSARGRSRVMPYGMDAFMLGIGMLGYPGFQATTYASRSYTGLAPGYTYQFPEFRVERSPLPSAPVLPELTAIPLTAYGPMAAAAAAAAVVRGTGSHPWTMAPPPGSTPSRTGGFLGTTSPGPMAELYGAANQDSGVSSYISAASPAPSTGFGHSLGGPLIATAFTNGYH
row,Binder,binding signal [enrichment R]
1,B1,0.866
2,B2,0.352
3,B3,1.19
4,B4,0.477
5,B5,0.569
6,B6,3.89
7,B7,0.518
8,B8,0.609
9,B9,0.437
10,B10,12.5
11,B11,0.336
12,B12,0.255
13,B13,58.4
14,B14,0.436
15,B15,0.339
16,B16,0.322
17,B17,0.371
18,B18,0.624
19,B19,1.91
20,B20,0.446
21,B21,0.245
22,B22,0.448

# From paper PMC12136788
